From paper PMC11864811
No constants are given. Whether binding was seen depends on the method and setting. In cells and extracts the contact can be indirect. Some results given as binding are weak or reduced against the parent protein; the word gives no strength.

By UniProt entry, the sequences of proteins in these tests, tags left out.
UniProt O15527: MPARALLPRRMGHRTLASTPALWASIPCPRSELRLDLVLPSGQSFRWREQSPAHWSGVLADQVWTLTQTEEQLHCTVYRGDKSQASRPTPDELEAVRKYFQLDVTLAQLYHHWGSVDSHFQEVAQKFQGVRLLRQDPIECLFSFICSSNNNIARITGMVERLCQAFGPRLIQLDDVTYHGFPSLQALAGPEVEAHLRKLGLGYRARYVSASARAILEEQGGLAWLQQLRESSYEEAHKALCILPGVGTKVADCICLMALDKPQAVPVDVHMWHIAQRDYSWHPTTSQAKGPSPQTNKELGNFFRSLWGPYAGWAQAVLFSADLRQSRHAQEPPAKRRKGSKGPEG
UniProt P09874: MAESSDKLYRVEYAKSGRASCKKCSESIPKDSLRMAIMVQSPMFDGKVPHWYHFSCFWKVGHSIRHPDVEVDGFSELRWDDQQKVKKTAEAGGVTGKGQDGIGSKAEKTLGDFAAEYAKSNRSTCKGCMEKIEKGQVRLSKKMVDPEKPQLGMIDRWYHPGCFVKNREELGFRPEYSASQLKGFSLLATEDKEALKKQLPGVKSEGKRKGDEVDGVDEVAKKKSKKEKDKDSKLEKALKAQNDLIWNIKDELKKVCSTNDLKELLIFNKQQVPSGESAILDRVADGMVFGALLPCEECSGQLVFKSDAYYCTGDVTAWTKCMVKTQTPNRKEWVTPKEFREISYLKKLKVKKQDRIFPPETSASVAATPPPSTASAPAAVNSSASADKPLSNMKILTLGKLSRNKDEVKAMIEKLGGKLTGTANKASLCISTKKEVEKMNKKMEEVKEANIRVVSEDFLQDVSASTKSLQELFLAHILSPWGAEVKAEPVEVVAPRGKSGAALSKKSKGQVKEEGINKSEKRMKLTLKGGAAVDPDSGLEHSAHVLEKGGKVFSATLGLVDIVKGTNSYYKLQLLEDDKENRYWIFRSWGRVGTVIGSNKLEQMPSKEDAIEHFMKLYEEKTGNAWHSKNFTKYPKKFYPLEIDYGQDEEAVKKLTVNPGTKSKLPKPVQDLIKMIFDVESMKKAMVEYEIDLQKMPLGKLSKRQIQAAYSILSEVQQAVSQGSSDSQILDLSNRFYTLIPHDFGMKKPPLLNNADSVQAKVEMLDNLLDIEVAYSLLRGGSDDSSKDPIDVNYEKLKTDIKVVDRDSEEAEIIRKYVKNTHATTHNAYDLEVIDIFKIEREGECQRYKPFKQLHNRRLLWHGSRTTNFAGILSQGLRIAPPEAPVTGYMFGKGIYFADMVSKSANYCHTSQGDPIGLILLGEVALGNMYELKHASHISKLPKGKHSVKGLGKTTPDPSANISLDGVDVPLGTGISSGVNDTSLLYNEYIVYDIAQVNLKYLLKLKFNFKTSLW
UniProt P18887: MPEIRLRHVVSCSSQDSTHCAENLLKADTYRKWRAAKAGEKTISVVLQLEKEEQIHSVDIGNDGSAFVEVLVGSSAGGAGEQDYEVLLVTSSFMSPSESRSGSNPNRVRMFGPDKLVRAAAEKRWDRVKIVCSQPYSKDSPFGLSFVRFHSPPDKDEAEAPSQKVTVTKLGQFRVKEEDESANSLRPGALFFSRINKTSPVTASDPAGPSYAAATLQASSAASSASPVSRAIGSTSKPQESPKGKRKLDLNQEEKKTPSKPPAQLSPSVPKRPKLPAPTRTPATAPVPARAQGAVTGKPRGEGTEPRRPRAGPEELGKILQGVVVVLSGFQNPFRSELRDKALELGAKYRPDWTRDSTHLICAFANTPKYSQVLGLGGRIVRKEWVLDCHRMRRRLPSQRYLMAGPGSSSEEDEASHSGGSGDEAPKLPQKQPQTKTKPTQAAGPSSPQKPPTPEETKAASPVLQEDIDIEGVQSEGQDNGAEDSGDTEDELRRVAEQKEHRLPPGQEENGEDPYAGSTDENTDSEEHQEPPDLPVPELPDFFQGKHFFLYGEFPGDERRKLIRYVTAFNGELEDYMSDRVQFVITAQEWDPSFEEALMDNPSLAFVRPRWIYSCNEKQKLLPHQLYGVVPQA

Experiments:
Assay in all cases: proximity ligation; Duolink PLA in fixed HeLa 1.2.11 cells with antibodies to the endogenous proteins, against single antibody controls; untreated or 200 μM H2O2 for 2 h before fixation
[1] = biological target: 8-oxo-guanine glycosylase (OGG1), endogenous (human (endogenous in HeLa and HEK293T)) (UniProt O15527)
[2] = biological target: PARP1, endogenous (human (endogenous in HeLa)) (UniProt P09874)
[3] = biological target: XRCC1, endogenous (human (endogenous in HeLa)) (UniProt P18887)

Measured: binding

B1: STN1, endogenous (protein, UniProt Q9H668 1-368)
chain: MQPGSSRCEEETPSLLWGLDPVFLAFAKLYIRDILDMKESRQVPGVFLYNGHPIKQVDVLGTVIGVRERDAFYSYGVDDSTGVINCICWKKLNTESVSAAPSAARELSLTSQLKKLQETIEQKTKIEIGDTIRVRGSIRTYREEREIHATTYYKVDDPVWNIQIARMLELPTIYRKVYDQPFHSSALEKEEALSNPGALDLPSLTSLLSEKAKEFLMENRVQSFYQQELEMVESLLSLANQPVIHSASSDQVNFKKDTTSKAIHSIFKNAIQLLQEKGLVFQKDDGFDNLYYVTREDKDLHRKIHRIIQQDCQKPNHMEKGCHFLHILACARLSIRPGLSEAVLQQVLELLEDQSDIVSTMEHYYTAF
binds: all assays above
